Laboratory results: PubChem BioAssay AID485294 (National Center for Advancing Translational Sciences (NCATS), 2010)
About 150 (0.041%) of roughly 370,000 compounds were called active. This list was built around the results that the source calls inconclusive (neither active nor inactive); the mix of calls is not that of the screen. Calls follow the shape of the dose curve; as a rule, active = well fitted inhibition curve with a large enough effect; inconclusive = small, poorly fitted or top-dose-only effect; inactive = flat fitted curve, though single readings scatter. No potency is given beside an inconclusive call; the fits are too rough.

The compounds below were run against Beta-lactamase (Escherichia coli (strain K12)) (UniProt P00811) (assay: qHTS Inhibitors of AmpC Beta-Lactamase (assay with detergent)). Conditions: AmpC hydrolysis of nitrocefin, absorbance 480 nm, 0.01% Triton; series mostly up to 114 µM.
Method in brief: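 AmpC (5.3 nM in the dispensed reagent) in 20 mM phosphate pH 7.0 with 0.01% (detergent screen) or 0.0001% Triton X-100 was preincubated with compounds for 15 min at room temperature. Nitrocefin was then added from an 800 uM solution, and hydrolysis was followed at 480 nm.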
Also: nearly all actives have a fitted effect of over 25% in size.
Potency is read from the fitted curve at half-maximal effect; tags tell the direction and shape of the fitted curve.

Sequence of UniProt P00811 (P00811 whole entry, looked up): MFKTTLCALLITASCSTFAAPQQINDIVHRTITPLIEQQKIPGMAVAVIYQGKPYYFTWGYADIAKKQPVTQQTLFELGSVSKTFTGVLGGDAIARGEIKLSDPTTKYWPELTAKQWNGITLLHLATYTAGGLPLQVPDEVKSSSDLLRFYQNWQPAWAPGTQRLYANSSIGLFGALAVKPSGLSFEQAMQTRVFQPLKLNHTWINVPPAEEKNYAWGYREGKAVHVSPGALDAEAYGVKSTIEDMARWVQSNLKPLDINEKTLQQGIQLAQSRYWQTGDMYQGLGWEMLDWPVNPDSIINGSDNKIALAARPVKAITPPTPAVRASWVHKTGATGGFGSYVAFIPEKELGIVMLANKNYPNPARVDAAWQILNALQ

| SMILES | Potency |
| --- | --- |
| CCOC(=O)c1c(C)[nH]c(C)c1C(=O)CSc1nncs1 | inconclusive [inhibitor, partial curve] |
| COc1cc(OC)c(CN2CCN(c3ccc(F)cc3)CC2)cc1Br | inconclusive [inhibitor, full curve, poor fit] |
| C[C@H]1CN=C(N(C)C)N1CCc1ccc(F)cc1 | inconclusive [inhibitor, single point] |
| CCOC(=O)c1sc2nc(C)n(N)c(=O)c2c1C | inconclusive [inhibitor, full curve, poor fit] |
| Oc1cccc2ccc[n+](CC(O)Cn3c4ccccc4c4ccccc43)c12 (stereo not drawn) | inconclusive [inhibitor, full curve, poor fit] |
| CC12CN3CCN(CC(C3)/C1=N\NC(=O)Nc1cccc(Cl)c1)C2 | inactive |
| FC(F)(F)c1nnc2c(Sc3ccccc3)nc3ccc(Cl)cc3n12 | inactive |
| N#C/C(=C\c1ccccc1)C(=O)NCc1ccc(F)cc1 | inconclusive [inhibitor, full curve, poor fit] |
| COc1ccc(NC(=O)c2cc3c(=O)n(C)c4ccccc4c3s2)cc1OC | inconclusive [inhibitor, full curve, poor fit] |
| COc1ccc(CN2CCN(C(=O)c3ccc(S(=O)(=O)NCc4ccco4)cc3)CC2)cc1F | inconclusive [inhibitor, partial curve, poor fit] |
| COc1ccc(N2CCN(S(=O)(=O)CCNC(=O)/C=C/c3ccc4c(c3)OCO4)CC2)cc1 | inconclusive [inhibitor, single point] |
| CCc1ccc(NC(=O)c2ccc(F)c(S(=O)(=O)NCCc3ccc(OC)c(OC)c3)c2)cc1 | inactive |
| O=C(N/N=C1\CC2CC=CC12)c1ccc(Br)cc1 (stereo not drawn) | inactive |
| COc1cc(OC)cc(-c2c(-c3cccs3)c3cc(-c4ccc5cc[nH]c5c4)ccc3n2C)c1 | inactive |
| COc1ccc(/C=C/C(=O)OCCNC(=O)c2ccncc2)cc1OC | inactive |
| COCCn1ccc(O)c(Cc2ccccc2)c1=O | inconclusive [inhibitor, full curve] |
| CC(C)C(NC(=O)CCNC(=O)c1ccc([N+](=O)[O-])cc1)c1nc2ccccc2[nH]1 (stereo not drawn) | inconclusive [inhibitor, full curve, poor fit] |
| CCOC(=O)c1cnc2nc(Cc3ccccc3)[nH]n2c1=O | inactive |
| CNc1nc(-c2c[nH]c3ccccc23)cs1 | inconclusive [inhibitor, full curve] |
| Cc1ccc(S(=O)(=O)N(Cc2ccccc2)c2ccccc2C(=O)Nc2ccccc2C(=O)NCc2ccco2)cc1 | inactive |
| CCSc1nnc(NC(=O)Cc2cccc(OC)c2)s1 | inconclusive [inhibitor, full curve, poor fit] |
| Cn1cnnc1SCC(=O)Nc1ccccc1Sc1ccccc1 | inconclusive [inhibitor, full curve, poor fit] |
| CCOC(=O)C1CCCN(C(=O)c2ccccc2[N+](=O)[O-])C1 (stereo not drawn) | inactive |

| SMILES | Potency |
| --- | --- |
| O=C(CN1C(=O)NC2(CCc3ccccc32)C1=O)NCc1ccc(F)cc1 (stereo not drawn) | inconclusive [inhibitor, full curve] |
| COCCNC(=O)C(=O)NCC(c1cccnc1)N1CCN(c2ccccc2)CC1 (stereo not drawn) | inactive |
| CC(=O)Nc1ccc(S(=O)(=O)NCCC(=O)OCC(=O)c2cc(C)ccc2C)cc1 | inconclusive [inhibitor, partial curve, poor fit] |
| COc1cc(-c2nnc(SCC(=O)N3c4ccccc4Sc4ccccc43)o2)cc(OC)c1OC | inconclusive [inhibitor, partial curve] |
| CC(=O)Nc1ccc(S(=O)(=O)Nc2cccc3[nH]ncc23)cc1 | inconclusive [inhibitor, full curve, poor fit] |
| CC(=O)Oc1cccc(N2C(=O)CC(Nc3ccc(N4CCOCC4)cc3)C2=O)c1 (stereo not drawn) | inconclusive [inhibitor, full curve] |
| N#Cc1cccc(S(=O)(=O)N2CCN(c3ccnc4cc(Cl)ccc34)CC2)c1 | inconclusive [inhibitor, single point] |
| Cc1onc(-c2ccccc2Cl)c1C(=O)Nc1nnc(-c2ccc(Cl)cc2Cl)s1 | inconclusive [inhibitor, full curve, poor fit] |
| O=C(COc1ccc2c(-c3ccccc3)cc(=O)oc2c1)N[C@H](Cc1c[nH]c2ccccc12)C(=O)O | inactive |
| O=C(CN1CCN(c2cccc(Cl)c2)CC1)NC1CCCc2ccccc21 (stereo not drawn) | inactive |
| COc1ccc(NC(=O)CCN2CCN(c3ccc(F)cc3)CC2)cc1 | inactive |
| O=C(CCNS(=O)(=O)c1ccc(Cl)cc1)N1CCN(c2ccccn2)CC1 | inactive |
| CCCn1c2ccccc2c2nnc(SC(CC)C(=O)Nc3cc(C)on3)nc21 (stereo not drawn) | inactive |
| Cc1ccc2cc(-c3noc(C(C)(C)C)n3)c(=O)[nH]c2c1 | inactive |
| O=C(CN1CCOCC1)Nc1nc2ccc(F)cc2s1 | inconclusive [inhibitor, full curve, poor fit] |
| Oc1ccc(-c2c(-c3ccsc3)sc3ccccc23)cc1 | inconclusive [inhibitor, full curve] |
| COc1ccc(OC)c(NC(=O)C2CC(=O)N(CCc3ccccc3)C2)c1 (stereo not drawn) | inconclusive [inhibitor, single point] |
| O=C1N=c2ccccc2=C1c1sc(=S)n(NC(=O)c2cccc(O)c2)c1O | inactive |
| CN(Cc1ccccc1)c1nc2c(c(=O)[nH]c(=O)n2C)n1Cc1ccccc1Cl | inconclusive [inhibitor, partial curve, poor fit] |
| N#CCCn1cc(C=C(C#N)C#N)c(-c2ccc(-c3ccccc3)cc2)n1 | inconclusive [inhibitor, full curve] |
| CCc1cc2ccccc2nc1SCC(=O)N1CCN(C(=O)c2ccco2)CC1 | inconclusive [inhibitor, partial curve, poor fit] |
| O=C(N/N=C/c1cccs1)c1ccc2nc[nH]c2c1 | inconclusive [inhibitor, partial curve, poor fit] |
| COc1cc(N2C(=O)CC(=O)NC2=O)cc(OC)c1OC | inconclusive [inhibitor, partial curve, poor fit] |

| SMILES | Potency |
| --- | --- |
| COc1ccc(N2CCN(C(=O)CSc3nc4nc(C)cc(C)n4n3)CC2)cc1 | inconclusive [inhibitor, full curve, poor fit] |
| Cc1onc(-c2c(F)cccc2Cl)c1C(=O)N[C@@H]1C(=O)N2C(C(=O)O)C(C)(C)S[C@H]12 (stereo partly drawn) | active: 2.51 µM |
| Cc1ccc(CNC(=O)COC(=O)c2c(C)noc2C)cc1 | inconclusive [inhibitor, partial curve] |
| O=C(NCCn1ccc2ccccc21)c1ccc(S(=O)(=O)N2CCOCC2)cc1 | inconclusive [inhibitor, full curve] |
| O=C(OCc1cc2ccccc2[nH]c1=O)C1CCCO1 (stereo not drawn) | inconclusive [inhibitor, partial curve, poor fit] |
| CCOC(=O)Cn1c(=O)n(CC2CCCO2)c2nc(-c3c(F)cccc3Cl)nc(C(N)=O)c21 (stereo not drawn) | inactive |
| O=C(c1ccccc1Oc1ccccc1)N1CCN(c2ccccc2)CC1 | inconclusive [inhibitor, partial curve, poor fit] |
| COc1ccccc1/C=C/C(=O)NCC(=O)N/N=C/c1ccc2c(c1)OCO2 | inactive |
| Cc1c(C(=O)N2CCN(c3ccccc3)CC2)oc2c(Cl)cccc12 | inactive |
| O=C(O)c1ccc(-n2nncc2-c2ccco2)cc1 | inconclusive [inhibitor, full curve, poor fit] |
| COCCNC(=O)CSc1nnc2[nH]c(=O)cc(C)n12 | inactive |
| O=C(CSc1nc2ccccc2nc1N1CCCC1)Nc1ccc(Cl)cc1 | inconclusive [inhibitor, partial curve, poor fit] |
| CCC1CCc2sc(C(=O)NCC(c3ccc(OC)cc3)N3CCOCC3)cc2C1 (stereo not drawn) | inconclusive [inhibitor, full curve, poor fit] |
| CCCOc1ccc(CSC2=NCCN2)cc1[N+](=O)[O-] | inconclusive [inhibitor, full curve, poor fit] |
| COc1cc(OC)c2c(c1C(CCN1CCOCC1)c1ccc(N(C)C)cc1)OC(=O)CC2c1ccc(N(C)C)cc1 (stereo not drawn) | inactive |
| O=S(=O)(NCC1COc2ccccc2O1)c1ccc2ccccc2c1 (stereo not drawn) | inconclusive [inhibitor, full curve, poor fit] |
| O=C(COC(=O)CCCc1nc2ccccc2s1)Nc1ncc(Cl)cc1Cl | inconclusive [inhibitor, full curve, poor fit] |
| CCCCCn1c(=S)[nH]c2ncccc2c1=O | inconclusive [inhibitor, partial curve] |
| Cc1ccccc1C(=O)NC(=S)Nc1sc2c(c1C#N)CCCC2 | inconclusive [inhibitor, single point] |
| Cc1noc(Cn2c(=O)c3ccccc3n(CC(=O)Nc3ccc(C(C)C)cc3)c2=O)n1 | inactive |
| Cc1csc(N(C(=O)c2cccc(S(=O)(=O)N3CCCC3)c2)c2ccccc2)n1 | inactive |
| Clc1cccc(Cl)c1COc1ccccc1CNn1cnnc1 | inconclusive [inhibitor, single point] |
